Test results: the supplement of paper PMC9446081
The whole screen tested about 39,000 compounds, of which about 220 (0.56%) showed activity. The list shows a part of the results.
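Also: static incubation at 37 °C against the wild-type strain, values averaged over two biological replicates.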

The compounds below were run on Escherichia coli K-12 BW25113 (assay: relative growth (OD600 normalised to plate interquartile mean) (fraction); higher = less growth inhibition, active = 0.2 or less). Settings: 50 µM; LB; incubation time: overnight (16-24 h).
For `O=C([C@@H]1[C@@H](CO)[C@@H]2Cn3c(cccc3=O)[C@H]1N2CC1CCCC1)N1CCOCC1`, the relative growth was inactive: 1.01. `Cc1ccc(S(=O)(=O)Nc2ccc3c(c2)C(=O)N(C)[C@H]2CC[C@@H](CC(=O)NCCc4ccncc4)O[C@@H]2CO3)cc1` was tested, and the relative growth was inactive: 1.05. For `OCc1cc(O)c2c(O)c3c(O)cccc3c(O[C@@H]3O[C@H](CO)[C@H](O)[C@@H](O)[C@H]3O)c2c1`, the relative growth was inactive: 0.974. With `CC(C)(C)c1csc(-c2ccc(OC(F)(F)F)cc2)n1` the relative growth was inactive: 1.04. `NC(=O)NC(=O)C[n+]1ccc(/C=N/O)cc1` was tested, and the relative growth was inactive: 0.938. `COCCNC(=O)C[C@@H]1CC[C@H]2[C@@H](COC[C@@H](O)CN2S(=O)(=O)c2ccccc2F)O1` was tested, and the relative growth was inactive: 0.995. `C[C@@H]1CN([C@@H](C)CO)C(=O)c2cccc(NS(=O)(=O)c3ccccc3)c2O[C@@H]1CN(C)S(=O)(=O)c1cccs1` was tested, and the relative growth was inactive: 1.04. In the case of `COc1ccc(S(=O)(=O)N(C)C[C@H]2OCCCC[C@H](C)Oc3ccc(NC(=O)Nc4cccc5ccccc45)cc3C(=O)N([C@H](C)CO)C[C@H]2C)cc1`, the relative growth is reported as inactive: 1.03. `NCc1cccc2c1OCC2` was tested, and the relative growth was inactive: 0.997. `Cc1noc(C)c1S(=O)(=O)N(C)C[C@@H]1Oc2ccc(NS(=O)(=O)c3ccc(F)cc3)cc2C(=O)N([C@H](C)CO)C[C@@H]1C` was tested, and the relative growth was inactive: 1.02. With `Cc1cc(C(=O)Nc2cccc3c2O[C@H](CN(C)Cc2ccc(C(=O)O)cc2)[C@H](C)CN([C@@H](C)CO)C3=O)n(C)n1` the relative growth was inactive: 0.994. In the case of `COc1cccc2c1C(=O)c1c(O)c3c(c(O)c1C2=O)C[C@](O)(C(=O)CO)C[C@H]3O[C@H]1C[C@@H](N)[C@@H](O)[C@@H](C)O1`, the relative growth is reported as inactive: 0.945. For `COc1ccc(S(=O)(=O)N(C)C[C@H]2Oc3ccc(NS(=O)(=O)c4cccs4)cc3CC(=O)N([C@H](C)CO)C[C@H]2C)cc1`, the relative growth was inactive: 0.993. With `C[C@H]1CN([C@@H](C)CO)C(=O)c2cc(NC(=O)C3CC3)ccc2O[C@H]1CN(C)Cc1ccc(Oc2ccccc2)cc1` the relative growth was inactive: 1. In the case of `CC(C)NC(=O)N(C)C[C@H]1Oc2ccc(NC(=O)CCN3CCOCC3)cc2C(=O)N([C@H](C)CO)C[C@H]1C`, the relative growth is reported as inactive: 0.994. `COc1ccc(NC(=O)N(C)C[C@H]2Oc3ccc(NS(C)(=O)=O)cc3CC(=O)N([C@H](C)CO)C[C@@H]2C)cc1` was tested, and the relative growth was inactive: 1.03. For `CCOC(=O)N(C)C[C@@H]1OCc2cn(nn2)CCCC(=O)N([C@H](C)CO)C[C@@H]1C`, the relative growth was inactive: 0.98. In the case of `C[C@H](CO)N1C[C@H](C)[C@@H](CN(C)C(=O)Nc2ccc(F)cc2)Oc2ccc(NC(=O)CCCCCC(=O)Nc3ccccc3N)cc2CC1=O`, the relative growth is reported as inactive: 1. For `O=C(N[C@@H]1CC[C@H](CCn2cc(C3(O)CCCC3)nn2)O[C@H]1CO)C1CCOCC1`, the relative growth was inactive: 0.964. `C[C@@H]1CN([C@@H](C)CO)C(=O)c2cc(NS(=O)(=O)c3ccc(F)cc3)ccc2O[C@H]1CN(C)S(=O)(=O)c1cn(C)cn1` was tested, and the relative growth was inactive: 1. For `C[C@@H]1CN([C@@H](C)CO)C(=O)Cc2cc(NC(=O)Nc3cccc4ccccc34)ccc2O[C@@H]1CN(C)Cc1ccc(C(F)(F)F)cc1`, the relative growth was inactive: 1.03. `C[C@H]1O[C@@H](O[C@H]2CC[C@@]3(C)[C@@H](CC[C@@]4(C)[C@@H]3CC=C3[C@H]5C[C@](C)(C(=O)O)CC[C@]5(C(=O)O[C@H]5O[C@@H](CO)[C@@H](O)[C@@H](O)[C@@H]5O)CC[C@@]34C)[C@@]2(C)CO)[C@@H](O)[C@@H](O[C@H]2O[C@@H](CO)[C@@H](O)[C@@H](O)[C@@H]2O)[C@@H]1O` was tested, and the relative growth was inactive: 1.01. In the case of `C[C@H](CO)N1C[C@H](C)[C@@H](CN(C)C(=O)Nc2cccc3ccccc23)Oc2ccc(NC(=O)Nc3ccccc3)cc2CC1=O`, the relative growth is reported as inactive: 0.993. For `C=CC[C@@H](CC(=O)N[C@H](CO)Cc1ccccc1)C(=O)N[C@@H](COC(=O)[C@@H](CC=C)NC(=O)OCC1c2ccccc2-c2ccccc21)Cc1c[nH]c2ccccc12`, the relative growth was inactive: 1.02. For `CN1C(=O)[C@H]2[C@H](C1=O)[C@H]1C=C(c3ccc(CO)cc3)[C@@H]2[C@H](c2cccs2)N1Cc1cccc(OC(F)(F)F)c1`, the relative growth was inactive: 1.04. With `CC(C)NC(=O)N(C)C[C@@H]1Oc2ccc(NC(=O)Nc3ccc4c(c3)OCO4)cc2CC(=O)N([C@H](C)CO)C[C@@H]1C` the relative growth was inactive: 1. For `CO[C@H]1CN(C)C(=O)c2cc(NC(=O)Nc3cccc(Cl)c3)ccc2OC[C@@H](C)N(C(=O)Nc2c(C)noc2C)C[C@@H]1C`, the relative growth was inactive: 0.983. With `COC(=O)[C@@H]1C(=O)NC[C@H]1c1ccccc1` the relative growth was inactive: 0.997. In the case of `C[C@H]1CN([C@@H](C)CO)C(=O)Cc2cc(NS(C)(=O)=O)ccc2O[C@H]1CN(C)S(=O)(=O)c1cn(C)cn1`, the relative growth is reported as inactive: 1.02. With `CCCNC(=O)C[C@H]1CC[C@@H]2[C@@H](COc3ccc(NC(=O)c4ccc5c(c4)OCO5)cc3C(=O)N2C)O1` the relative growth was inactive: 0.972. In the case of `C[C@@H]1CN([C@H](C)CO)C(=O)c2cccc(NC(=O)c3ccc(-c4nccs4)cc3)c2O[C@@H]1CN(C)CC1CCCCC1`, the relative growth is reported as inactive: 1.03. For `C[C@H](CO)N1C[C@H](C)[C@@H](CN(C)Cc2ccccc2)Oc2ccc(NC(=O)Cn3cnnn3)cc2C1=O`, the relative growth was inactive: 0.94. With `O=C(C[C@@H]1C=C[C@@H](NC(=O)CN2CCOCC2)[C@@H](CO)O1)NCc1cccc(F)c1` the relative growth was inactive: 1.05. For `Cc1ccc(S(=O)(=O)Nc2cccc3c2O[C@@H](CN(C)C(=O)Nc2ccc(C(F)(F)F)cc2)[C@H](C)CN([C@H](C)CO)C3=O)cc1`, the relative growth was inactive: 0.992. For `COc1ccc(CN(C)C[C@H]2OCCCC[C@@H](C)Oc3ccc(NC(=O)Nc4c(C)noc4C)cc3C(=O)N([C@@H](C)CO)C[C@@H]2C)cc1`, the relative growth was inactive: 0.993. With `COc1ccc2c3c(n(c2c1)C)[C@H](CO)N(CC1CCOCC1)C[C@]13CN(C1)C(=O)c1cccc(c1)F` the relative growth was inactive: 1.02. In the case of `CC(=O)OC(C)C[N+](C)(C)C.[Cl-]` (configuration not stated), the relative growth is reported as inactive: 0.98.
